The values that follow come from the supplement of paper PMC8728848.

Holding throughout (assay): glycan array binding signal (z-score within array); higher = stronger binding
Common to all, as to conditions: glycan notation: IUPAC condensed, linker removed

Assay [1] deals with Gal(b1-4)GlcNAc(b1-6)Gal(b1-4)GlcNAc. The method, boiled down: (§1)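 Glycan array binding is given as a within-array Z-score, which can be read as non-binding when negative. The arrays, 3228 of them, came from the Consortium for Functional Glycomics database and were retained only where the protein sequence was available. Z-scores were averaged across arrays of the same protein sequence at different concentrations or buffers and across linkers.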

Assay [2] addresses Gal(b1-4)GlcNAc(b1-6)GalNAc. The method, boiled down:
as §1

Assay [3] concerns the target Gal(b1-4)GlcNAc(b1-6)[Gal(b1-3)]GalNAc. The method, boiled down:
as §1

Assay [4] addresses Gal(b1-4)GlcNAc(b1-6)[Gal(b1-4)GlcNAc(b1-3)]GalNAc. The method, boiled down: as §1
Assay [5] deals with Gal(b1-4)GlcNAc6P. The method, boiled down:
as §1

For assay [6], the target named is Gal(b1-6)Gal. The method, boiled down: as §1
Assay [7] addresses Gal3S(b1-3)GalNAc. The method, boiled down:
as §1

The target of assay [8] is Gal3S(b1-3)GlcNAc. The method, boiled down:
as §1

For assay [9], the target named is Gal3S(b1-3)[Fuc(a1-4)]GlcNAc. The method, boiled down:
as §1

For assay [10], the target named is Gal3S(b1-4)Glc. The method, boiled down:
as §1

Assay [11] deals with Gal3S(b1-4)Glc6S. The method, boiled down: as §1
For assay [12], the target named is Gal3S(b1-4)GlcNAc. The method, boiled down:
as §1

Assay [13] concerns the target Gal3S(b1-4)[Fuc(a1-3)]Glc6S. The method, boiled down:
as §1

The target of assay [14] is Gal3S(b1-4)[Fuc(a1-3)]GlcNAc. The method, boiled down:
as §1

For assay [15], the target named is Gal3S(b1-4)[Fuc(a1-3)]GlcNAc6S. The method, boiled down:
as §1

Assay [16] has as its target Gal3S4S(b1-4)GlcNAc. The method, boiled down: as §1
For assay [17], the target named is Gal3S6S(b1-4)GlcNAc. The method, boiled down: as §1
For assay [18], the target named is Gal3S6S(b1-4)GlcNAc6S. The method, boiled down:
as §1

In assay [19] the target is Gal4S(b1-4)GlcNAc. The method, boiled down:
as §1

Assay [20] has as its target Gal4S6S(b1-4)GlcNAc. The method, boiled down:
as §1

Assay [21] has as its target Gal6P(b1-4)GlcNAc. The method, boiled down:
as §1

The target in assay [22] is Gal6S(b1-3)GlcNAc. The method, boiled down: as §1
In assay [23] the target is Gal6S(b1-3)GlcNAc6S. The method, boiled down:
as §1

The list shows a part of the results.

B1: Cp ZmpB (Clostridium perfringens), Q0TR08 (protein)
chain: MNKRKIAAIILATMITNLSATTIDVLAQELNTKNNSKVEVSHDDESHQARVSKFDLYNSDKLDAYNQEFQVSRSNIKSINNNGGKYNSSTIDKAIDGNLETHWETGKPNDANFTNEVVVTFNEITNIDRIVYSARRDSARGKGFAKEFEIYASLKDEGDDFNLVSSGEYTESTRDLVEIKFNPTDFKRLKFKFKKADQNWASAAEFMFYKEDKLNEKFNGLFTDSSMNKVSEEFNTLEKLNAFENELKDHPIYDLYKEGLNNARAILTETSENPTKATLGQITYNLNDDYNNQYRMPYKNIKAIKNNGRHYAAQNIEKAIDNDVNTYWETGTLNSSSFNNEVEVEFNDLVTLDRIVYGSRQSDLKGFAEEVYIYASRTSKGDTYKLVATGAHEATKGLVEAKFEPTEFKRVKFKFKKSKQNSATLNELMFYKPDEVYSSIPKLFTDGTMSELSEEFNSLEKINAFKEKAKNHPLYNDFNETIELAESLISNPRKEDVLELEMRGDSISEAKKRKVWNFQDWQITGLSARAGDKITVYVDVAEGDPTPTLLYKQSLTQHGGATSFQLKPGKNEITIPEINYESNGIPKDVIQGGDLFFTNYKSDSQKRAPKVRIEGASKYPVFILGKSDENEVMKELEAYVEKIKAEPKTTPNIFAVSSNKSLEFVQATYALDWYKKNNKTPKYTAEQWDQYIADAMGFWGFDNSKDVNSDFNFRIMPMVKNLSGGAFMNAGNGVIGIRPGNQDAILAANKGWGVAHELGHNFDTGGRTIVEVTNNMMPLFFESKYKTKTRITDQNIWENNTYPKVGLDDYSNNELYNKADSTHLAQLAPLWQLYLYDNTFYGKFERQFRERDFGNKNREDIYKSWVVAASDAMELDLTEFFARHGIRVDDKVKEDLAKYPKPDKKIYYLNDLAMNYKGDGFTENAKVSVSTSGSNGNIKLSFSVDDENKDNILGYEIRRDGKYVGFTSNDSFVDTKSNLDEDGVYVVTPYDRKLNTLNPIEVNALQPTLSVNPVITLALGEEFNEEEYIVAKDIKGNSLSESVKVKSSNVNTSKVGEYEVLYSLEDSKGNEYTKTSKVNVVSRKEYMSDLTPKQSSNGWGTVRKDKSISGGVIGLTRDGDFVDYNKGLGLHSNAEYVYDLEGKDYDYFESYVGVDKAMSSRPASSVIFKVLVDGEEKFNSGVMRSTTPQKYVKVDVKNAKELKLIVNDAGDGDSSDHASFGDAKLATLSSKPIIKGENLAYSMDEKVDLMKGITATDIEDGNITSKVQIKSSDFVEGKSGIFTVVYSVTDSDGLTSECSRTIAVTDKETQLSDLNWKSATIGSGSVRKDRAVSGNQIRLLNEDNSVETFAKGIGTHSYSEIVYNSEGYDIFDTWVGIDRHVADKKVSSVKFKVYVDGELKAETDVMRIDTPKKRLVVDVRNSKEIKLVVDVADNGNNWDHADWADAKFRNLAEYDASELNKAIEEAKKLDLNNYTEESSEALKNAISKGEEALLSKDKETINSALEELNKEMNSLVKVDLNAVINIPDKYLLKSIQNQLNKTGDITLGDMYSLTTLTLSGVEDLTGLENAKNLETLNMDYNEVKDLRPLSKLKKLNTLNAQEQFIAAGELKPSNGKVIGDSKVYNREGKNVAKTIRVVDKNGNTILEQDAKDEFTINTKDLSSGLYGVHVLFEDEGFSGVMFYLFNV
As to B1, the “glycan array binding signal (z-score)” value in assay [1] was -0.138; in assay [2], 0.019; in assay [3], -0.007; in assay [4], 0.086; in [5], 0.166; in assay [6] it was -0.09. Further, the “glycan array binding signal (z-score)” value in assay [7] is 0.011; in assay [8], -0.111; in assay [9], -0.055; in assay [10] it was 0.05; in [11], 0.365; in assay [12], 0.198. Besides, the “glycan array binding signal (z-score)” value in assay [13] was 0.061; in assay [14], -0.002; in assay [15], -0.035; in assay [16], 0.473; in [17], -0.199; in assay [18] it was 1.17. Besides, the “glycan array binding signal (z-score)” value in [19] was -0.125; in assay [20] it was 0.461; in [21], -0.373; in assay [22] it was -0.331; in assay [23] it was 0.343.
